Our source for the survival values is PubChem BioAssay AID463173 (ICCB-Longwood Screening Facility, Harvard Medical School, 2010).

Out of some 52,000 compounds screened, about 1,700 (3.3%) were called active. No stated cut-off is given here; in the data, active means survival mostly below about 52% (no sharp cut-off); inactive means mostly above about 56%. The list shows a part of the results.

For the assay, the system named is Wild type. Kind of assay: S. aureus survival, RN4220 and DeltatarO strains – OD600, teichoic acid synthesis inhibitors, primary screen (AID 463173). To be noted: S. aureus RN4220 wild type/DeltatarO growth, OD600, 18 h, hits give low values, screened at 18.75 µg/mL (by protocol).
Consider `O=c1c(N2CCc3ccccc3C2)csc2ccc(F)cc12`, for which the survival is inactive: 84%. Next, `CC1=C(C(=O)Nc2ccccc2C)C(c2cccs2)n2nc(SCc3cc(C)ccc3C)nc2N1` (stereo unspecified): inactive: 143%; `CCOC(=O)c1ccc(CN(Cc2ccc(OC)cc2)S(=O)(=O)c2cccc(C(F)(F)F)c2)cc1`: inactive: 73%. In the case of `O=C(CCCn1c(=O)c2cccn2c2cccnc21)Nc1ccccc1C(F)(F)F` it was inactive: 90%; in that of `CCOc1ccccc1NC(=O)C1=C(C)Nc2ncnn2C1c1sccc1C` (stereo unspecified), inactive: 90%. In the case of `Cc1ccc(CNC(=O)c2c(-c3ccc(Br)cc3)noc2C)o1` it was inactive: 82%; in that of `CCn1c2c(c(=O)n3ncc(C(=O)Nc4ccc(C(=O)OC)cc4)c13)CN(Cc1ccc(OC)cc1)CC2`, inactive: 55%; in that of `COc1ccc(C)cc1NC(=O)c1ccc2nc(Cc3ccccc3)oc2c1`, inactive: 128%. In the case of `COc1ccc(CCNC(=O)c2c(O)nc3c(C)cccn3c2=O)cc1OC`, the survival was inactive: 89%. `CCn1c(CN2CCCCC2)nc2cc(NC(=O)COc3ccccc3C(C)(C)C)ccc21`: the survival is inactive: 122%.

For the molecule `Cc1coc2c1c(C)cc1oc(=O)c(CC(=O)NCCc3ccc(Cl)cc3)c(C)c12`, the survival was inactive: 87%. Next, `O=C(Cn1c(SCC(=O)N2CCc3ccccc32)nc2ccccc21)NC1CC1`: inactive: 107%. For `Cc1c(C(=O)NCc2ccccc2)oc2ccc(S(=O)(=O)N3CCC(C)CC3)cc12`, the survival is inactive: 65%.

For the molecule `O=C(NCCc1ccc(Cl)cc1)C(=O)NCC(c1ccco1)S(=O)(=O)c1ccccc1` (stereo unspecified), the survival is inactive: 133%. In the case of `Cc1ccc(NC(=O)C(=O)NCC(c2cccnc2)N2CCN(C)CC2)cc1` (stereo unspecified) it was inactive: 87%; in that of `COc1ccc(N2CCN(C(=O)CSc3nc4ccccc4nc3Cc3ccc(Cl)cc3)CC2)cc1`, inactive: 88%; in that of `COc1ccc(N2CCN(C(=O)c3cc(-c4ccc(C)c(F)c4)on3)CC2)cc1`, inactive: 106%. As for `Cc1c(C(=O)NCCc2ccc(Cl)cc2)cccc1-n1cnc2cccnc21`, the survival was inactive: 80%. In the case of `COc1ccc(NC(=O)c2c(N)c(C(=O)c3ccc(OC)cc3)n3ccccc23)cc1` it was inactive: 103%.

Turning to `CCOC(=O)c1cc2sccc2n1CC(=O)N1CCCC1`, the survival is inactive: 106%. In the case of `CCn1c2ccccc2c2cc(CN3CCN(Cc4ccc(OC)c(OC)c4)CC3)ccc21`, the survival was active: 14%. As for `CCOc1ccc(CC(=O)NCCS(=O)(=O)N2CCN(c3ccc(OC)cc3)CC2)cc1`, the survival was inactive: 70%. Take `COc1ccc(-c2[nH]c(-c3ccccc3)nc2SCC(=O)NC2CCCC2)cc1`: the survival is inactive: 80%. `COc1ccc(CCNC(=O)c2cc3c(=O)n(C)c4cc(Cl)ccc4c3s2)cc1OC`: the survival was inactive: 69%. Take `CCC1CN(C(=O)NCc2cccc(OC)c2)c2ccccc2O1` (stereo unspecified): the survival is inactive: 84%. `O=S1(=O)c2ccccc2N(Cc2ccccc2Cl)c2ccccc21`: the survival was inactive: 80%. `COc1ccc(Nc2nc(N)nc(CSc3nc4ccccc4s3)n2)cc1`: the survival was inactive: 35%. Take `COc1cccc(NC(=O)C(=O)NCCc2sc(-c3cccc(C)c3)nc2C)c1`: the survival is inactive: 129%.

Consider `CCN1C(=O)c2ccccc2Sc2ccc(NC(=O)Nc3ccc(Br)c(C)c3)cc21`, for which the survival was inactive: 82%. With `COc1ccc(-c2cc(NCc3ccc(C)cc3)n3cnnc3n2)cc1`, the survival is inactive: 112%. In the case of `Cc1ccc(-c2ccc(=O)n(CC(=O)NC(C)c3ccccc3)n2)cc1` (stereo unspecified) it was inactive: 88%; in that of `O=C(O)CN1C(=O)/C(=C\c2ccccc2)SC1=S`, inactive: 102%. As for `Cc1ccccc1NC(=O)Cn1c(=O)n(CCCCC(=O)NCc2ccccc2Cl)c(=O)c2ccccc21`, the survival was inactive: 101%.

Take `CCOC(=O)c1c(S(=O)(=O)N2CCC(C(=O)Nc3cccc(C#N)c3)CC2)c(C)n(C)c1C`: the survival was inactive: 115%. In the case of `Cc1c(C(=O)OC2CCCCCC2)[nH]c2c1C(=O)CC(c1ccccc1Cl)C2` (stereo unspecified) it was inactive: 95%; in that of `CCN(CC)S(=O)(=O)c1ccc(C(=O)NC2CC(=O)N(c3ccc4c(c3)OCCO4)C2)cc1` (stereo unspecified), inactive: 74%; in that of `O=C(CN1C(=O)COc2ccc(S(=O)(=O)Nc3ccccc3)cc21)NCc1ccccc1Cl`, inactive: 73%.

In the case of `O=C(CSc1nc2c(c(=O)[nH]1)CN(Cc1ccc(F)cc1)CC2)Nc1cccc(C(F)(F)F)c1`, the survival was inactive: 59%. Turning to `COc1ccc(NC(=O)Cn2c(=O)n(CCc3ccccc3)c(=O)c3sc4ccccc4c32)cc1`, the survival is inactive: 87%. Consider `Cc1cc(C)nc(-n2nc(C)c3c2NC(=O)CC3c2ccccc2OC(C)C)n1` (stereo unspecified), for which the survival is inactive: 82%.

`CCOC(=O)c1ccc(N2C(=O)c3[nH]nc(-c4ccccc4)c3C2c2cccs2)cc1` (stereo unspecified): the survival was inactive: 129%. As to `COc1ccc(CCNc2nc(SCc3ccccc3Cl)nc3ccccc23)cc1OC`, the survival is inactive: 99%.

On to `COc1cc(Cl)c(NS(=O)(=O)c2ccc3[nH]c(=O)ccc3c2)c(OC)c1`, for which the survival is inactive: 66%.

Regarding `CCC1CCCCN1C(=O)Cn1c(=O)n(-c2ccccc2C(F)(F)F)c(=O)c2c(C)c(C(=O)N(C)C)sc21` (stereo unspecified), the survival was inactive: 77%. `Cc1ccc(C)c(NC(=O)C2CCCN(S(=O)(=O)c3cccc4nsnc34)C2)c1` (stereo unspecified): the survival is inactive: 74%. For `COc1ccc(C2CC(=O)c3c([nH]c(C(=O)OC4CCCC4)c3C)C2)cc1OC` (stereo unspecified), the survival was inactive: 133%. On to `CCOc1ccc(OCC)c(NC(=O)CN(c2ccc(C)cc2)S(=O)(=O)c2c(C)n[nH]c2C)c1`, for which the survival is inactive: 42%.

Consider `CCOc1ccc(NC(=O)C(CC)n2nc(-c3ccc(C)c(C)c3)ccc2=O)cc1` (stereo unspecified), for which the survival is inactive: 79%. Take `N#CC1C(C#N)N2CCCN2C1c1ccc(Cl)cc1` (stereo unspecified): the survival is inactive: 108%. Take `Cc1ccc(NC(=O)Cn2c(=O)n(Cc3nc(-c4ccccc4)no3)c(=O)c3cc4c(cc32)OCO4)cc1C`: the survival is inactive: 85%. Take `COc1ccccc1N1CCN(C(c2ccccc2)c2nnc(-c3ccccc3Cl)o2)CC1` (stereo unspecified): the survival was active: 0%. With `CCCNC(=O)c1cc2n(n1)CCCN(Cc1ccc(F)cc1)C2=O`, the survival was inactive: 79%. For the molecule `O=C(c1ccc2c(c1)N(Cc1ccccc1F)C(=O)c1ccccc1S2(=O)=O)N1CCCCCC1`, the survival is inactive: 85%. Turning to `COc1cccc(C(=O)c2sc(Nc3ccc(C)cc3C)c(S(=O)(=O)c3ccccc3)c2N)c1`, the survival is inactive: 94%.

As for `COc1ccc(-c2csc3ncnc(Nc4ccc(OC)c(OC)c4)c23)cc1`, the survival was inactive: 88%.

As for `CCOc1ccc(CCNC(=O)c2ccc(Cn3c(=O)c4cccn4c4cccnc43)cc2)cc1`, the survival is inactive: 116%. As for `Cc1cc(N2CCCCC2)nc2ccc(NC(=O)CCC(=O)N3CCN(c4cccc(Cl)c4)CC3)cc12`, the survival is inactive: 62%. As for `CCN(C(=O)Cn1c(SCc2ccccc2F)nc2cccnc21)c1ccccc1`, the survival was inactive: 95%. Regarding `CCOC(=O)c1sc(N2C(=O)c3oc4ccc(F)cc4c(=O)c3C2c2cccc(OC)c2)nc1C` (stereo unspecified), the survival is inactive: 75%. Next, `O=C(CSCc1nc2cccnc2n1C1CCCCC1)NCc1cccc(Br)c1`: inactive: 119%; `O=C(OCc1ccccc1)c1ccc(-c2nnn(Cc3ccccc3F)n2)cc1`: inactive: 65%.

Turning to `CCOc1ccc(CCNC(=O)c2ccc3[nH]c(C)c(C)c3c2)cc1`, the survival is inactive: 143%. On to `Cc1ccc2scc(N3CCN(c4ccccc4)CC3)c(=O)c2c1`, for which the survival is inactive: 74%. In the case of `O=C(C1COc2ccccc2O1)N(Cc1cccnc1)c1nc2ccc(F)cc2s1` (stereo unspecified), the survival was inactive: 72%. In the case of `N/C(=N\c1nc2c(c(=O)[nH]1)CCC2)Nc1cccc(Cl)c1`, the survival is inactive: 116%.

On to `O=C(CSc1nc(-c2ccco2)nc2cc(=O)[nH]n12)Nc1ccccc1Cl`, for which the survival is inactive: 45%. Consider `COC(=O)C1=C(C)C(c2ccccc2OC)NC(=O)N1` (stereo unspecified), for which the survival is inactive: 115%. Next, `O=C(Cn1c(=O)oc2ccccc21)NCc1ccccc1Cl`: inactive: 70%. On to `Cc1ccc(C)c(N2CCN(CCCNC(=O)Cn3c(-c4cccs4)cc4ccccc43)CC2)c1`, for which the survival was inactive: 71%. Turning to `COc1ccc(-n2c(-c3ccc(F)cc3)cn3c4c(=O)n(C)c(=O)n(C)c4nc23)cc1`, the survival is inactive: 63%. In the case of `CCOc1ccc2ncc3c(-c4ccccc4)nn(CC(=O)Nc4cccc(F)c4)c3c2c1`, the survival is inactive: 81%.

With `Cc1nn(-c2nc3ccccc3[nH]2)c(N)c1-c1ccccc1`, the survival was inactive: 81%. In the case of `COc1ccccc1CNC(=O)Cn1c(=O)oc2ccccc21`, the survival is inactive: 62%.

Take `CCCn1cc(S(=O)(=O)c2cccc(Cl)c2)c(=O)c2cc(F)c(N3CCN(CC)CC3)cc21`: the survival is inactive: 111%. Turning to `CCCCn1c(SCC(=O)N2CCCCCC2)nnc1-c1ccoc1C`, the survival was inactive: 98%.

With `COc1cc2[nH]c(=O)n(CCCC(=O)NCc3ccccc3Cl)c(=O)c2cc1OC`, the survival was inactive: 79%.

Turning to `COCCCNC(=O)C1CCN(c2nnc(-n3cccc3CNc3ccc(C)cc3)s2)CC1`, the survival is inactive: 72%.

`Cc1cc(OCCn2c(C3CC(=O)N(Cc4ccc(F)cc4)C3)nc3ccccc32)ccc1Cl` (stereo unspecified): the survival was active: -15%. On to `O=C(CSc1nc2c(c(=O)[nH]1)CCCC2)Nc1cccc(O)c1`, for which the survival was inactive: 80%.

With `COCCCNC(=O)Cn1c(=O)n(-c2cccc(C)c2)c(=O)c2c3c(sc21)CN(C(C)=O)CC3`, the survival was inactive: 76%. `COC(=O)c1ccccc1NC(=O)CSc1nc2sc3c(c2c(=O)[nH]1)CCCC3`: the survival was inactive: 70%. Next, `O=C(CN1C(=O)C2CCCCN2c2ccc(C(=O)N3CCCC3)cc21)NCc1ccccc1` (stereo unspecified): inactive: 77%; `COc1cccc(CNC(=O)Cn2cc3c(n2)-c2c(oc(C(=O)N4CCOCC4)c2C)CC3)c1`: inactive: 85%; `COc1ccc(S(=O)(=O)N2Cc3ccccc3CC2C(=O)Nc2cccc(C)c2)cc1OC` (stereo unspecified): inactive: 75%.

For `CCCCn1c(CCNC(=O)c2ccc(F)cc2)nc2ccccc21`, the survival was inactive: 65%. As to `COc1ccccc1CNc1nc(-c2ccco2)nn1C(=O)c1ccccc1[N+](=O)[O-]`, the survival was inactive: 80%.
